Assay results as given in PubChem BioAssay (NCATS).
Inconclusive means that the source gave no clear call. Such entries were picked first, then a sample of the others. For some of these results: Potencies of inconclusive entries are left out as doubtful fits. More than one record can exist for a structure, and the calls need not agree. The source made the active and inactive calls. The call rests on the fitted dose curve; in most records, active means well fitted curve in the direction sought with a large enough effect; inconclusive means small, poorly fitted or top-dose-only effect, or another doubt; inactive means no such curve, though single readings can be large; an effect the other way counts as inactive or inconclusive.

Experiments:
[1] = biological target: Cytochrome P450 3A7 (Homo sapiens) (UniProt P24462); experiment: Cytochrome P450 family 3 subfamily A member 7 (CYP3A7) small molecule antagonists: luciferase biochemical qHTS assay (AID 1963596); further: nearly all actives have a fitted effect of over 40% in size; further: potency means the concentration at half of the fitted maximal effect
UniProt P24462, sequence (P24462 whole entry, looked up): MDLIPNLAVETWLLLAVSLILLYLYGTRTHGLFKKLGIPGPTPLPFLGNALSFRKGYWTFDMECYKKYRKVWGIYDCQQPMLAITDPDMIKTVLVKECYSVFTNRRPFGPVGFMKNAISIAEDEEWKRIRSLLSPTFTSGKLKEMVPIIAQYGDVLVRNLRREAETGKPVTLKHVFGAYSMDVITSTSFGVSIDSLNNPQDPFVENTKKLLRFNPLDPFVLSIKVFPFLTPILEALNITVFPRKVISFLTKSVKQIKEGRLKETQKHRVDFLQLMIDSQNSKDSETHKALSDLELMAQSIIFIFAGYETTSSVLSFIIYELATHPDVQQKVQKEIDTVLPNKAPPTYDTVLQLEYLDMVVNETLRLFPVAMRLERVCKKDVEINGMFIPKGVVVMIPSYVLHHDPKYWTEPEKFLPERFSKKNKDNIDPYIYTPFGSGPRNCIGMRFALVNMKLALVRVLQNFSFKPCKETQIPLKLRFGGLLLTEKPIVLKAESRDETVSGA
Outline: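 Enzyme-substrate mix + cpd (DMSO), 10 min RT; + NADPH regen system, 1 h RT; + luciferin detection reagent, 20 min RT; luminescence read. Proluciferin substrate, P450-Glo format, 1536-well qHTS.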

[2] = Viability qHTS for spleen associated tyrosine kinase inhibitor (SYKi) naive MV4-11 cells (AID 1963823); details: MV4-11 AML viability, CellTiter-Glo luminescence, 72 h; viability (% of control): at 45 µM (top of the series); further: nearly all actives have a fitted effect of over 40% in size; further: potency means the concentration at half of the fitted maximal effect
Outline: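 Cells: MV4-11, SYK inhibitor naive, 500 per well. Treatment: library compounds, 72 hr, 37 C, 5% CO2. Read-out: CellTiter-Glo luminescence after 10 min RT.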

[3] = Viability qHTS for spleen associated tyrosine kinase inhibitor (SYKi) drug resistant MV4-11 cells (AID 1963824); further: nearly all actives have a fitted effect of over 35% in size; further: potency means the concentration at half of the fitted maximal effect
Outline: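 CellTiter-Glo luminescence, read 10 min after reagent addition, reports viability after a 72 hr compound exposure. Cells are an MV4-11 line made resistant to SYK inhibition, seeded at 500 per well onto compound-containing plates.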

[4] = Cellular viability qHTS for adrenocortical cancer (ACC) cell line NCI-H295R (AID 1963990); details: CellTiter-Glo ATP luminescence, 48 h; activity change, negative = viability loss: at 46.1 µM (top of the series);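 further: 0% = DMSO only wells and -100% = full killing with cytotoxic reference compound; nearly all actives have a fitted effect of over 60% in size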
Outline: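 Compound titrations (up to 46 uM final) are applied to NCI-H295R cultures for 48 h at 37C. Viable cell number is estimated by CellTiter-Glo signal, normalised to DMSO and doxorubicin controls.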
Tags describe the fitted curve by direction and shape.

SMILES: CCCN1CCC[C@@H](c2cccc(S(C)(=O)=O)c2)C1
- Potency [1]: inactive
- Potency [2]: inconclusive [rising, full curve]

SMILES: COCCOCC(OC)OC
- Potency [1]: inactive
- Potency [2]: inactive

SMILES: Cc1cn(-c2cc(NC(=O)c3ccc(C)c(Nc4nccc(-c5cnccn5)n4)c3)cc(C(F)(F)F)c2)cn1
- Potency [1]: inconclusive [inhibitor, full curve]
- Potency [2]: inconclusive [cytotoxic, partial curve, poor fit]

SMILES: Clc1ccc(Nc2nc3ccccc3c3nc(C4CCCCC4)[nH]c23)cc1Cl
- Potency [1]: inconclusive [inhibitor, partial curve]
- Potency [2]: active: 18.4 µM

SMILES: CCC(C(=O)OCCN(CC)CC)c1ccccc1 (configuration not stated)
- Potency [1]: inconclusive [inhibitor, partial curve, poor fit]
- Potency [2]: inconclusive [cytotoxic, single point]

SMILES: O=C(Nc1ccc(Cl)cc1)Nc1cccc(-c2cccc(N3CCCC3)n2)c1
- Potency [1]: inconclusive [inhibitor, partial curve, poor fit]
- Potency [2]: inconclusive [cytotoxic, single point]

SMILES: CCCC(=O)O[C@]1(C(=O)CO)CC[C@H]2[C@@H]3CCC4=CC(=O)CC[C@]4(C)[C@H]3[C@@H](O)C[C@@]21C
- Potency [1]: inactive
- Potency [2]: inconclusive [rising, full curve, poor fit]

SMILES: COc1cc2c(cc1OC)C(=O)CC2
- Potency [1]: inconclusive [inhibitor, single point]
- Potency [2]: inactive

SMILES: FC(F)(F)c1ccccc1-c1cc(C(F)(F)F)c2nc(C3=NOC4(CCCCC4)C3)[nH]c2c1
- Potency [1]: inactive
- Potency [2]: inconclusive [cytotoxic, partial curve]

SMILES: CCCNc1ccc2ncc(-c3ccc4[nH]ncc4c3)n2n1
- Potency [1]: inactive
- Potency [2]: inconclusive [cytotoxic, full curve]

SMILES: CCN(CC)CCNC(=O)COc1ccc(Cl)cc1
- Potency [1]: inactive
- Potency [2]: inactive

SMILES: CC(=O)[C@H]1CC[C@H]2[C@@H]3C[C@H](C)C4=CC(=O)CC[C@]4(C)[C@H]3[C@@H](O)C[C@]12C
- Potency [1]: inconclusive [inhibitor, full curve]
- Potency [2]: inconclusive [cytotoxic, single point]

SMILES: CCCn1cc2c(nc(NC(=O)Nc3ccc(OC)cc3)n3nc(-c4ccco4)nc23)n1
- Potency [1]: inconclusive [inhibitor, partial curve]
- Potency [2]: inconclusive [cytotoxic, partial curve, poor fit]

SMILES: N#Cc1ccc(COc2ccc(-c3cccc4nc(NC(=O)C5CC5)nn34)cc2)cn1
- Potency [1]: inconclusive [inhibitor, full curve]
- Potency [2]: inconclusive [cytotoxic, full curve]

SMILES: Cn1ncnc1COc1nn2c(-c3cc(F)ccc3F)nnc2cc1C(C)(C)C
- Potency [1]: active: 4.47 µM
- Potency [2]: inactive

SMILES: Cc1ccccc1N=Nc1ccc(N=Nc2c(O)ccc3ccccc23)c(C)c1
- Potency [1]: inconclusive [inhibitor, partial curve]
- Potency [2]: inactive

SMILES: C[C@@H](C1=C(CCN(C)C)Cc2ccccc21)c1ccccn1
- Potency [1]: inconclusive [inhibitor, partial curve]
- Potency [2]: inconclusive [cytotoxic, partial curve]

SMILES: O=C(CCN1CCN(CCO)CC1)N1c2ccccc2Sc2ccc(C(F)(F)F)cc21
- Potency [1]: inconclusive [inhibitor, full curve]
- Potency [2]: inactive

SMILES: O=c1[nH]c(=O)n([C@H]2CCCO2)cc1F
- Potency [1]: inactive
- Potency [2]: inconclusive [cytotoxic, partial curve, poor fit]

SMILES: N[C@@H](CC(=O)Nc1ccc(Oc2cc(F)c(F)cc2Br)cc1)C(=O)O
- Potency [1]: inactive
- Potency [2]: inactive

SMILES: O=C(O)CCc1nc(-c2ccccc2)c(-c2ccccc2)o1
- Potency [1]: inconclusive [inhibitor, partial curve, poor fit]
- Potency [2]: inconclusive [cytotoxic, single point]

SMILES: C/C(=N/NC(=O)c1ccncc1)C(=O)O
- Potency [1]: inconclusive [inhibitor, partial curve, poor fit]
- Potency [2]: inactive

SMILES: CO/N=C(\C(=O)O)c1csc(NC(=O)CCl)n1
- Potency [1]: inconclusive [inhibitor, partial curve, poor fit]
- Potency [2]: inactive

SMILES: COC(=O)[C@H](Cc1ccc([N+](=O)[O-])cc1)NC(=O)c1cccc2ccccc12
- Potency [1]: inconclusive [inhibitor, partial curve, poor fit]
- Potency [2]: active: 5.8 µM

SMILES: Nc1c(-c2ccccc2)nc(Cl)c2c(O)n[nH]c(=O)c12
- Potency [1]: inconclusive [inhibitor, partial curve]
- Potency [2]: inactive

SMILES: C=CC[N+]1([C@H]2C[C@H]3[C@@H]4CC[C@H]5C[C@H](OC(C)=O)[C@@H](N6CCCCC6)C[C@]5(C)[C@H]4CC[C@]3(C)[C@H]2OC(=O)CC)CCCCC1
- Potency [1]: inconclusive [inhibitor, single point]
- Potency [2]: inconclusive [cytotoxic, partial curve]
- Potency [3]: inconclusive [cytotoxic, partial curve, poor fit]

SMILES: COC(=O)C1=C(C)NC(C)=C(C(=O)OCCc2ccc(N3CCN(C(c4ccccc4)c4ccccc4)CC3)cc2)C1c1cccc([N+](=O)[O-])c1 (configuration not stated)
- Potency [1]: inconclusive [inhibitor, single point]
- Potency [2]: inconclusive [cytotoxic, single point]
- Potency [3]: inconclusive [cytotoxic, partial curve]

SMILES: CCN1C(C)(C)CC(Oc2ccc(C(=O)Nc3ccc(NC(=O)Nc4cc(C(C)(C)C)on4)cc3)nc2)CC1(C)C
- Potency [1]: inconclusive [inhibitor, partial curve, poor fit]
- Potency [2]: inconclusive [cytotoxic, full curve, poor fit]
- Potency [3]: inconclusive [cytotoxic, full curve]

SMILES: CCOC(=O)N1c2ccc(C(F)(F)F)cc2C(N(Cc2cc(C(F)(F)F)cc(C(F)(F)F)c2)C(=O)OC)CC1CC (configuration not stated)
- Potency [1]: inactive
- Potency [2]: inconclusive [cytotoxic, full curve]
- Potency [3]: inconclusive [cytotoxic, full curve]

SMILES: CCN(CC)CCCC(C)Nc1ccnc2cc(Cl)ccc12 (configuration not stated)
- Potency [1]: inactive
- Potency [2]: active: 8.2 µM
- viability (% of control) [2]: inactive: 72.7% [at 9.25 µM]
- Potency [3]: inconclusive [cytotoxic, partial curve, poor fit]
- Potency [4]: inactive

SMILES: Cc1cnc(NS(=O)(=O)c2ccc(N)cc2)nc1
- Potency [1]: inconclusive [inhibitor, single point]
- Potency [2]: inactive
- Potency [3]: inactive

SMILES: Nc1ccc(S(=O)(=O)NC(=O)c2ccccc2)cc1
- Potency [1]: inconclusive [inhibitor, full curve, poor fit]
- Potency [2]: inactive
- Potency [3]: inconclusive [cytotoxic, full curve, poor fit]

SMILES: CC(C)NC[C@@H](O)COc1cccc2ccccc12
- Potency [1]: inconclusive [inhibitor, full curve]
- Potency [2]: inconclusive [cytotoxic, single point]
- Potency [3]: inconclusive [cytotoxic, single point]

SMILES: Cn1nnc(-c2ccc(-c3ccc(N4C[C@H](CO)OC4=O)cc3F)cn2)n1
- Potency [1]: inactive
- Potency [2]: inconclusive [cytotoxic, full curve]
- Potency [3]: inconclusive [cytotoxic, full curve]

SMILES: CC(=O)NCC1CN(c2ccc(-c3ccc(CNCc4cn[nH]n4)cc3)c(F)c2)C(=O)O1 (configuration not stated)
- Potency [1]: inconclusive [inhibitor, partial curve, poor fit]
- Potency [2]: inconclusive [cytotoxic, partial curve]
- Potency [3]: inconclusive [cytotoxic, full curve]

SMILES: Nc1nc2c(s1)CCN(Cc1ccc(Cl)cc1)CC2
- Potency [1]: inconclusive [inhibitor, full curve]
- Potency [2]: inconclusive [cytotoxic, partial curve]
- Potency [3]: inconclusive [cytotoxic, partial curve]

SMILES: CC(C(=O)O)c1ccc2c(c1)[nH]c1ccc(Cl)cc12 (configuration not stated)
- Potency [1]: inconclusive [inhibitor, single point]
- Potency [2]: inconclusive [cytotoxic, partial curve, poor fit] and inactive

SMILES: Cc1cc(NC(=O)c2cccc(NC(=O)/C=C/CN(C)C)c2)ccc1Nc1nccc(-c2cccnc2)n1
- Potency [1]: inconclusive [inhibitor, single point]
- Potency [2]: active: 2.06 µM

SMILES: C[C@@H]1C[C@H]2[C@@H]3CCC4=CC(=O)C=C[C@]4(C)[C@@]3(F)[C@@H](O)C[C@]2(C)[C@H]1C(=O)CO
- Potency [1]: inconclusive [inhibitor, full curve]
- Potency [2]: inconclusive [cytotoxic, single point]
- Potency [3]: inconclusive [cytotoxic, partial curve]

SMILES: CCCN1CCCC[C@H]1C(=O)Nc1c(C)cccc1C
- Potency [1]: inconclusive [inhibitor, partial curve, poor fit]
- Potency [2]: inactive

SMILES: COC(=O)[C@H](Cc1cccc(C(=N)N)c1)[C@@H](C)NC(=O)c1ccc(-c2cc[n+]([O-])cc2)cc1
- Potency [1]: inactive
- Potency [2]: inconclusive [cytotoxic, partial curve, poor fit]
- Potency [3]: inconclusive [cytotoxic, partial curve, poor fit]
